The list shows a part of the results. The list includes weakly bound sequences.
target: T1, MBP-FoxP3dN (UniProt Q99JB6); assay: PD-seq (MBP pull-down with sequencing); details: 20 mM Tris-HCl pH 7.5, 100 mM NaCl, 1.5 mM MgCl2, 0.4 uM protein, 0.1 uM dsDNA library, 30 min, room temperature, amylose pull-down; high values mean tight binding; double strand, one strand shown
T1 sequence: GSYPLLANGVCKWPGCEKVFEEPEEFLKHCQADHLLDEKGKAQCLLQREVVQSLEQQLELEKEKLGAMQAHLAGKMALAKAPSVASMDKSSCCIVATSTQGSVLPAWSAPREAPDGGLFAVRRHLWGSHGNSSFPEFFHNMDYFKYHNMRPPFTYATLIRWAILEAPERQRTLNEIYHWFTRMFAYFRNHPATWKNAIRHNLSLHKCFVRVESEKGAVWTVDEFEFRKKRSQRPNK

Row | Sequence | binding signal (RPM ratio (pull-down/input))
1 | GATGATTGTTCTCCCAGCTGATGAATTTATATATTCGAGTAAACAAATTTTCCTAATCTTTCTGTTCAAGCGCCATCTAC | 2.09
2 | GATGATTGTTCTCCCAGCTGATGAATTGACTGGCTCGAGTAAACAAATTTTCCTAATCTTTCTGTTCAAGCGCCATCTAC | 0.258
3 | GATGATTGTTCTCCCAGCTGATGAATTTGTGTTCTCGAGTAAACAAATTTTCCTAATCTTTCTGTTCAAGCGCCATCTAC | 6.29
4 | GATGATTGTTCTCCCAGCTGATGAATTGCCGCAATCGAGTAAACAAATTTTCCTAATCTTTCTGTTCAAGCGCCATCTAC | 3.46
5 | GATGATTGTTCTCCCAGCTGATGAATTGTCTTACTCGAGTAAACAAATTTTCCTAATCTTTCTGTTCAAGCGCCATCTAC | 0.469
6 | GATGATTGTTCTCCCAGCTGATGAATTCAGTACGTCGAGTAAACAAATTTTCCTAATCTTTCTGTTCAAGCGCCATCTAC | 0.522
7 | GATGATTGTTCTCCCAGCTGATGAATTAGACTTCTCGAGTAAACAAATTTTCCTAATCTTTCTGTTCAAGCGCCATCTAC | 0.433
8 | GATGATTGTTCTCCCAGCTGATGAATTCCTATTATCGAGTAAACAAATTTTCCTAATCTTTCTGTTCAAGCGCCATCTAC | 0.622
9 | GATGATTGTTCTCCCAGCTGATGAATTTACTCTTTCGAGTAAACAAATTTTCCTAATCTTTCTGTTCAAGCGCCATCTAC | 0.399
10 | GATGATTGTTCTCCCAGCTGATGAATTGAATGTGTCGAGTAAACAAATTTTCCTAATCTTTCTGTTCAAGCGCCATCTAC | 1.26
11 | GATGATTGTTCTCCCAGCTGATGAATTAGGTTACTCGAGTAAACAAATTTTCCTAATCTTTCTGTTCAAGCGCCATCTAC | 1.43
12 | GATGATTGTTCTCCCAGCTGATGAATTGCAGCGATCGAGTAAACAAATTTTCCTAATCTTTCTGTTCAAGCGCCATCTAC | 0.779
13 | GATGATTGTTCTCCCAGCTGATGAATTCCTGCTCTCGAGTAAACAAATTTTCCTAATCTTTCTGTTCAAGCGCCATCTAC | 0.293
14 | GATGATTGTTCTCCCAGCTGATGAATTTTTGAAATCGAGTAAACAAATTTTCCTAATCTTTCTGTTCAAGCGCCATCTAC | 0.346
15 | GATGATTGTTCTCCCAGCTGATGAATTGCGAGGCTCGAGTAAACAAATTTTCCTAATCTTTCTGTTCAAGCGCCATCTAC | 0.762
16 | GATGATTGTTCTCCCAGCTGATGAATTCCACAATTCGAGTAAACAAATTTTCCTAATCTTTCTGTTCAAGCGCCATCTAC | 0.368

Row | Sequence | binding signal (RPM ratio (pull-down/input))
17 | GATGATTGTTCTCCCAGCTGATGAATTAAACGTTTCGAGTAAACAAATTTTCCTAATCTTTCTGTTCAAGCGCCATCTAC | 0.472
18 | GATGATTGTTCTCCCAGCTGATGAATTTCATGCATCGAGTAAACAAATTTTCCTAATCTTTCTGTTCAAGCGCCATCTAC | 1.04
19 | GATGATTGTTCTCCCAGCTGATGAATTAAAAGTTTCGAGTAAACAAATTTTCCTAATCTTTCTGTTCAAGCGCCATCTAC | 0.273
20 | GATGATTGTTCTCCCAGCTGATGAATTCTTGGTTTCGAGTAAACAAATTTTCCTAATCTTTCTGTTCAAGCGCCATCTAC | 0.427
21 | GATGATTGTTCTCCCAGCTGATGAATTAGAGCCATCGAGTAAACAAATTTTCCTAATCTTTCTGTTCAAGCGCCATCTAC | 1.14
22 | GATGATTGTTCTCCCAGCTGATGAATTGCGAGTGTCGAGTAAACAAATTTTCCTAATCTTTCTGTTCAAGCGCCATCTAC | 1.6
23 | GATGATTGTTCTCCCAGCTGATGAATTGTAGGTGTCGAGTAAACAAATTTTCCTAATCTTTCTGTTCAAGCGCCATCTAC | 0.898
24 | GATGATTGTTCTCCCAGCTGATGAATTCTTTTTTTCGAGTAAACAAATTTTCCTAATCTTTCTGTTCAAGCGCCATCTAC | 0.311
25 | GATGATTGTTCTCCCAGCTGATGAATTGACGATATCGAGTAAACAAATTTTCCTAATCTTTCTGTTCAAGCGCCATCTAC | 0.549
26 | GATGATTGTTCTCCCAGCTGATGAATTGCGTGTATCGAGTAAACAAATTTTCCTAATCTTTCTGTTCAAGCGCCATCTAC | 2.58
27 | GATGATTGTTCTCCCAGCTGATGAATTACTTAGCTCGAGTAAACAAATTTTCCTAATCTTTCTGTTCAAGCGCCATCTAC | 0.257
28 | GATGATTGTTCTCCCAGCTGATGAATTTTTGTGATCGAGTAAACAAATTTTCCTAATCTTTCTGTTCAAGCGCCATCTAC | 0.656
29 | GATGATTGTTCTCCCAGCTGATGAATTGAGTCCGTCGAGTAAACAAATTTTCCTAATCTTTCTGTTCAAGCGCCATCTAC | 0.293
30 | GATGATTGTTCTCCCAGCTGATGAATTGTACTAATCGAGTAAACAAATTTTCCTAATCTTTCTGTTCAAGCGCCATCTAC | 0.452
31 | GATGATTGTTCTCCCAGCTGATGAATTATCTTTTTCGAGTAAACAAATTTTCCTAATCTTTCTGTTCAAGCGCCATCTAC | 0.469
